The other results are listed elsewhere or left out. No stated cut-off is given here; in the data, active = 3.2 or more and inactive = the rest. The signal is at background level for most entries.
What was measured:
Test in all cases: enrichment score (SH2-bound / input frequency) (ratio); bacterial display of known human phosphotyrosine sites (pTyr-Var adds point mutants) read by sequencing; higher = stronger binding; tyrosines were phosphorylated by kinases first
Conditions in all cases: peptide library: pTyr-Var
[1] = molecular target: SHP2 C-SH2 domain E139D
[2] = molecular target: SHP2 C-SH2 domain wild-type
[3] = molecular target: SHP2 N-SH2 domain L43F
[4] = molecular target: SHP2 N-SH2 domain T42A
[5] = molecular target: SHP2 N-SH2 domain T52S
[6] = molecular target: SHP2 N-SH2 domain wild-type
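Further: displayed peptides selected on beads carrying the immobilized SH2 domain, with library peptides lacking any tyrosine serving as negative controls.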

| Binder | enrichment score [1] | enrichment score [2] | enrichment score [3] | enrichment score [4] | enrichment score [5] | enrichment score [6] |
| --- | --- | --- | --- | --- | --- | --- |
| LKRIAYFLCLR [LGI1_Y21_L26R] | inactive: 1.29 | inactive: 1.03 | inactive: 0.988 | inactive: 1.02 | inactive: 1.04 | inactive: 1.01 |
| GGGMFYPLDLF [LINC01600_Y3_I2F] | inactive: 1.37 | inactive: 1.34 | inactive: 1.27 | inactive: 1.24 | inactive: 1.24 | inactive: 1.28 |
| DQVEQYNKELE [LMNA_Y259_K260N] | inactive: 1.39 | inactive: 1.19 | inactive: 1.14 | inactive: 0.721 | inactive: 0.768 | inactive: 0.986 |
| FQKNIYSEELR [LMNA_Y211] | inactive: 0.996 | inactive: 0.644 | inactive: 1.25 | inactive: 0.944 | inactive: 0.946 | inactive: 1.7 |
| VNKIYYPDFIV [LIG3_Y768] | inactive: 1.47 | inactive: 1.37 | inactive: 2.04 | inactive: 2.39 | inactive: 2.47 | inactive: 1.27 |
| AWVARYIFKRL [LPCAT3_Y348] | inactive: 2.97 | inactive: 2.5 | inactive: 2.52 | inactive: 2.32 | inactive: 2.88 | inactive: 2.31 |
| PQAVTYAKVKH [LILRB4_Y360] | active: 4.25 | active: 8.87 | inactive: 1.78 | active: 5.26 | inactive: 1.87 | inactive: 0.877 |
| MEIHAYRKLLE [LMNA_Y376] | inactive: 0.629 | inactive: 0.737 | inactive: 0.859 | inactive: 0.719 | inactive: 0.896 | inactive: 0.86 |
| PQAVTYATVKH [LILRB4_Y360_K362T] | active: 5.97 | active: 11.4 | inactive: 2.5 | active: 7.19 | inactive: 2.91 | inactive: 1.3 |
| DRLAVCIDRVR [LMNA_Y45_Y45C] | inactive: 0.507 | inactive: 0.784 | inactive: 0.666 | inactive: 0.611 | inactive: 0.672 | inactive: 0.763 |
| DRLAVYIDRVS [LMNA_Y45_R50S] | inactive: 0.986 | inactive: 0.851 | inactive: 0.871 | inactive: 0.79 | inactive: 0.806 | inactive: 0.922 |
| DRLAVYIDRVR [LMNA_Y45] | inactive: 0.791 | inactive: 0.701 | inactive: 0.751 | inactive: 0.601 | inactive: 0.638 | inactive: 0.788 |
| QQLDEYQELLD [LMNA_Y359] | inactive: 0.607 | inactive: 0.605 | inactive: 0.493 | inactive: 0.761 | inactive: 0.634 | inactive: 0.546 |
| VNKIFYPDFIV [LIG3_Y768_YF] | inactive: 1.31 | inactive: 1.28 | inactive: 1.38 | inactive: 1.34 | inactive: 1.42 | inactive: 1.14 |
| MEIHAYLKLLE [LMNA_Y376_R377L] | inactive: 2.37 | inactive: 2.71 | inactive: 2.14 | inactive: 2.16 | inactive: 2.37 | inactive: 3.01 |
| KVNKIYFPDFI [LIG3_Y767_YF] | inactive: 1.54 | inactive: 1.53 | inactive: 1.48 | inactive: 1.35 | inactive: 1.41 | inactive: 1.51 |
| DQGEQYKKELE [LMNA_Y259_V256G] | inactive: 0.511 | inactive: 0.641 | inactive: 0.547 | inactive: 0.395 | inactive: 0.526 | inactive: 0.665 |
| GGGMIYPLDLF [LINC01600_Y3] | inactive: 1.37 | inactive: 1.24 | inactive: 0.977 | inactive: 1.21 | inactive: 1.06 | inactive: 1.02 |
| GIKAAYEAELG [LMNA_Y81] | inactive: 0.925 | inactive: 0.731 | inactive: 0.814 | inactive: 0.694 | inactive: 0.925 | inactive: 0.936 |

— the supplement of paper PMC10369915
